This is one part of the list. At the low end of the ranking the order means little. Measured with an extract: partners may take part in the binding.

The assay has as its target T1, HNF4alpha8 (COS-7 nuclear extract) (UniProt P41235-5).
T1 sequence: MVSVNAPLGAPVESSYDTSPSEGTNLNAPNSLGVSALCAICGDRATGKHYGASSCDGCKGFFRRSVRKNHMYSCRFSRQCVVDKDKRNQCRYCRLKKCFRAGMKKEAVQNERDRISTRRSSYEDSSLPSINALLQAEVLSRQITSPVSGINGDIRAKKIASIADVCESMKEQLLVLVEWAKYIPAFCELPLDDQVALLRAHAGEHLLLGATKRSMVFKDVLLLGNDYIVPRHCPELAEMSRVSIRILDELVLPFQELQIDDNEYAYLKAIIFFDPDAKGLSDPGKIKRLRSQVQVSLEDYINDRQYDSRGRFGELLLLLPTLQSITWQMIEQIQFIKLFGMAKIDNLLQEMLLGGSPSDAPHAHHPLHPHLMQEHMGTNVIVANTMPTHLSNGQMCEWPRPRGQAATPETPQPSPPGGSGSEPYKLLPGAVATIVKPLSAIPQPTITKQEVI
Description: protein-binding microarray. Conditions: COS-7 nuclear extract on double-stranded Agilent 4x180k PBM; binding buffer, salt, pH and temperature not given; high values mean tight binding; double strand, one strand shown; sequences stand for … in …GCCTAGGGAGATTAGAGTATCGGTCGA
Regarding TCACATACCAGTAAAAACAACTGCCACTTA, the binding signal (log2 normalized intensity) was -1.3.
In the case of TGAAGTCATATTGAACTCACTGACTTCCAT, the binding signal (log2 normalized intensity) came to 1.29.
Turning to CCTAAGGCCTCCAGAAGGAATGCAGCCCTG, the binding signal (log2 normalized intensity) was -1.33.
In the case of CCAAAATGTGTTAGGCAAGCAAACTGCAAA it was -1.23; in that of ATATTTGCCAAGTGATAAGGAACCTAGGAA, -1.33.
Regarding GGGGGTGAGTCAGTCCCCAGCAATTGGGAA, the binding signal (log2 normalized intensity) is -1.18.
In the case of AATGGACAACGGAAAGACAGAGGTGAGGCT it was -1.34; in that of GTGCAGTGATCAATCAGCAGCAAAGTCCTG, -1.22.
For CCCTTCCTCGGTGGAGTTGACACAGACCTG the value was -0.0209; for TGCAGTATGCCCCCCCACCCCACACACACA, 6.83.
In the case of CGGAGCGCGCGGGAGGAGGAGACAAAGGCC it was 2.44.
For the sequence GTATGTGAATGCCTGGGCATGGCTGTGTTC, the binding signal (log2 normalized intensity) is 1.36.
In the case of AGGCTGGGGCCCCATCGACCTTTGCTCCCG it was 10.5; in that of CAGTGGACTTTGTCCTTCATCTATCTCCTT, 5.95; in that of AGGCCATAGGGAAAGATAAAAAAGTTCCAG, -1.42.
As to GCTAATGAGCACATTCTTCAATATCAGTGG, the binding signal (log2 normalized intensity) is 0.488.
For TCAGCGGCCCTGTGCTGCCCCCGATAGCAC the value was 4.82; for CACTGGAGGTTGAATTCCAAAGGTTATTTT, 4.12.
Regarding CCCACCTCCGGCCGGGAAGATGCCAGCCCC, the binding signal (log2 normalized intensity) stood at 2.68.
On to ATAGATAAGCACACTAAGGCTAAAGATTAC, for which the binding signal (log2 normalized intensity) was -1.3.
In the case of AAACATTAGCCAGGATCAGATTTGATAGCT it was -1.39; in that of TTTATTCAGGTGGCCACTGGCCCAGCGGAT, -0.502.
Regarding GGTATGTTTGTGATATTGTGAAATATATAT, the binding signal (log2 normalized intensity) was 1.86.
Turning to TCTCTTTTAGGCTGTCAGCCACCAAAGCAG, the binding signal (log2 normalized intensity) was -1.28.
In the case of AACATTTTTGCAACATGAGGAGCCAAGTTT it was -0.993.
Turning to GAGCATCCAGATAAAGCTGAAGAAAGCAGG, the binding signal (log2 normalized intensity) is -1.3.
In the case of CCAATGGCTAAGGTCACCATGACCATAAAC it was 0.466.
In the case of TCTGCAGACATGGACTCTGGGATCTCAGGG it was 1.82.
For CAGTTTGACCTTTGCATTCTTACCCAAGCC the value was 5.1.
Consider CTGTGCCATGCTTTTCAGTGCAAGGGACCT, for which the binding signal (log2 normalized intensity) turned out to be 0.742.
As for TGATCTACAGTCAGAGGCCTGAAGGCCCCC, the binding signal (log2 normalized intensity) stood at 1.97.
For TATCTTCAAAGCCAGCAACGGTGAGTCAAG the value was -0.794; for GAGAAAGGGGCTTAGGGAGGGTGAAGGTCA, 3.29.
For the sequence CCCCAGGCTGAGCGTGAACACCGGCCCCCT, the binding signal (log2 normalized intensity) was determined as 4.08.
In the case of AAGTGGCTCACCCAAGTCACACAGTTAGAA it was -1.2; in that of AAACTTCCACTAACTTGAGTGTGCACCCTG, 1.93; in that of CAAAGTGGAATTTGAACCTACACCTATGTG, 4.42.
For TTGAAGCAGAGTGTCCCATATCACATTTTA the value was 0.668; for ACCAGAGGGAAGAGATCATGGCCGATCGAC, -1.3.
For CCACAGCCCAACTCGGAGGACTGAGCCCGC the value was -1.31; for TCCTAGTCTTTAGAGTAACCATTCTTTCTG, 0.704; for TAACTCTCCAAATTCCAGGATCCAAGATCC, -1.3.
In the case of TGAGACTGCCTCAAACAGCTTCGCCTCCTC, the binding signal (log2 normalized intensity) is -1.33.
Take CTTCAAAGGAGTGGAGGAAGGAAGAAGTGT: the binding signal (log2 normalized intensity) was -1.35.
In the case of GCAGAAGGTCAGGTGAATCAACGATAAGGG, the binding signal (log2 normalized intensity) was -1.35.
For CCACAAGGGGGGAGCACCTCCCAACGTGCC the value was -1.43; for GTTTAGTGAGCTGTCTAATTTTGCACAGCC, -1.09; for GATCCTCCCACTTCAGCCTCCCGAGTAGTT, 2.67.
In the case of CTAGACCCACATCCTGTCAGACCAAGGCTG it was -1.31.
In the case of CTAAACCAGGATCCAGTCCTCACCCAGAAC it was 0.613; in that of TGGCAATGGCTGCAGCTCTTCCACGTGAGA, -1.35; in that of TCTGGCTTCTCGTGAGTATTTTTTCAACAT, -0.173.
Regarding AACAAAAACCAAATCACAATTTTCAAGAAC, the binding signal (log2 normalized intensity) was -1.33.
Turning to GACAAAGTACAGAGCAGGTGCTCGGTGAGT, the binding signal (log2 normalized intensity) is -1.29.
For AAAGAGTACACAAAGGTATCAGGGCTCAGG the value was -1.28.
Consider ACTCTAGGAACTTGTCTAAAAACATTGTGG, for which the binding signal (log2 normalized intensity) is -0.692.
In the case of CTAAGGCAGGGAAGGAGAGTGACCTCTGCT it was 3.47.
GGGTCCTACAGAACCTCCCTCCCCATCTCC: the binding signal (log2 normalized intensity) was 4.13.
In the case of TCTGCAAACTTCATGGCTTAAAACGACTGA it was -0.618; in that of ACTCTTTGTTATTTATTGGCCAGTAGCTCT, 1.49; in that of ACCTGTTACAAAACAGGTTCTTCCACGACT, -1.51.
On to TTTGGAATTTGACCTCATTTGCTCCCAGTG, for which the binding signal (log2 normalized intensity) came to 4.58.
In the case of ACATTGTGTCAATTCCAAAGTTCAAGTAGA it was 4.51.
For ACCTTTGCCCTGGATCTTGAAGCAGAAAAC, the binding signal (log2 normalized intensity) is 1.68.
For GTGAATTTCAGTGCCCTTTGAGATTTGCAT the value was 2.47; for AGTGAGCTAAGATTGGACTCTGCACTCCAG, 5.96.
Regarding CAGAAAAGGTAAGTGACCCTGGTCTTTGCC, the binding signal (log2 normalized intensity) came to 2.41.
In the case of GAACTCCCTATCCCCAGATTCCAGGGGAGG it was -1.34; in that of CTGCCAGTTGTCATTTGGGGCGGGCGGTCG, 1.03.
As for TCTTAGCAGAGATTCCTGCTGAGTTATCTC, the binding signal (log2 normalized intensity) was -1.29.
With TGAGTATCCAAAGGTCAGTGACAAATGTCA, the binding signal (log2 normalized intensity) is 4.51.
AGGCACTGGGATCCAAAGTTCATGGAAAGT: the binding signal (log2 normalized intensity) came out at 3.29.

The values are drawn from article PMC10726135.
